The source of these data is paper PMC10582461, “Self‐Aggregating Tau Fragments Recapitulate Pathologic Phenotypes and Neurotoxicity of Alzheimer's Disease in Mice” (Advanced Science, 2023).

The target in series [1] is T1, full‐length 2N4R human tau (tau‐FL) (human, UniProt P10636-8 1-441).
T1 construct: microtubule-associated protein tau, human, longest isoform 2N4R, 441 residues; Cloned in pET28a; also called full-length tau; source: E. coli Rosetta 2 (DE3), pET28a, purified (heated 85 °C, HiTrap Mono S)
The series can be described thus: co-sedimentation; tau-FL (20 µM) incubated with tau-AC or phospho-tau-AC (20 µM) at 37 °C, then 120 000 x g for 1 h at 4 °C; supernatant and pellet by SDS-PAGE/IB (anti-FLAG, TAU-5). The following applies: both partners purified.

Series [2] concerns the molecule itself. The experiment in a line: in vitro self-aggregation, non-reducing SDS-PAGE and immunoblot; tau-AC species alone (40-100 µM) in self-assembly buffer (10 mM HEPES pH 7.4, 100 mM NaCl, 1 mM DTT), 37 °C, shaking 250 rpm, no inducers; non-reducing SDS-PAGE, IB and CBB. For orientation: In western blotting, separated proteins are transferred to a membrane and probed.

Series [3] deals with the molecule itself. The experiment in a line: negative-stain transmission electron microscopy; purified tau proteins incubated at 37 °C (with or without heparin), uranyl acetate staining.

B1: tau‐AC‐S324D (phospho‐mimetic mutant of tau‐AC) (domain or fragment)
chain: not shown
notes: human tau […] of 2N4R (441 residues) with S324D; numbers count on: 2N4R tau (441 residues); also called phospho-tau-AC; source: E. coli Rosetta 2 (DE3), pET28a, purified; not shown: FLAG, C-terminal, kept
As for B1, the binding result in series [1] and in series [2] was “binds” throughout.

B2: tau‐AC‐S356D (phospho‐mimetic mutant of tau‐AC) (domain or fragment)
chain: not shown
notes: human tau […] of 2N4R (441 residues) with S356D; numbers count on: 2N4R tau (441 residues); also called phospho-tau-AC; source: E. coli Rosetta 2 (DE3), pET28a, purified; not shown: FLAG, C-terminal, kept
Turning to B2, the binding result in series [3] and in series [1] was “binds” throughout.

B3: tau‐AC‐S324D/S356D (tau‐AC‐SDSD, phospho‐mimetic double mutant of tau‐AC) (domain or fragment)
chain: not shown
notes: human tau […] of 2N4R (441 residues) with S324D and S356D; numbers count on: 2N4R tau (441 residues); also called phospho-tau-AC; source: E. coli Rosetta 2 (DE3), pET28a, purified; not shown: FLAG, C-terminal, kept
With B3, the binding result in series [3] is reported as “binds”.
